According to publication PMC4336329 (PLoS ONE, 2015):
About 14,000 (4.5%) of roughly 310,000 compounds showed an effect of 50% or more. The effect is printed as a negative number. The list shows a part of the results.

The compounds below were run against human ether-à-go-go-related gene (hERG) potassium channel (human, UniProt Q12809) (assay: primary screen, population patch clamp on CHO cells stably expressing hERG).
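Note: peak tail current of the secondary pulse compared with the same well before compound.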

Sequence of human ether-à-go-go-related gene (hERG) potassium channel (Q12809 whole entry, looked up): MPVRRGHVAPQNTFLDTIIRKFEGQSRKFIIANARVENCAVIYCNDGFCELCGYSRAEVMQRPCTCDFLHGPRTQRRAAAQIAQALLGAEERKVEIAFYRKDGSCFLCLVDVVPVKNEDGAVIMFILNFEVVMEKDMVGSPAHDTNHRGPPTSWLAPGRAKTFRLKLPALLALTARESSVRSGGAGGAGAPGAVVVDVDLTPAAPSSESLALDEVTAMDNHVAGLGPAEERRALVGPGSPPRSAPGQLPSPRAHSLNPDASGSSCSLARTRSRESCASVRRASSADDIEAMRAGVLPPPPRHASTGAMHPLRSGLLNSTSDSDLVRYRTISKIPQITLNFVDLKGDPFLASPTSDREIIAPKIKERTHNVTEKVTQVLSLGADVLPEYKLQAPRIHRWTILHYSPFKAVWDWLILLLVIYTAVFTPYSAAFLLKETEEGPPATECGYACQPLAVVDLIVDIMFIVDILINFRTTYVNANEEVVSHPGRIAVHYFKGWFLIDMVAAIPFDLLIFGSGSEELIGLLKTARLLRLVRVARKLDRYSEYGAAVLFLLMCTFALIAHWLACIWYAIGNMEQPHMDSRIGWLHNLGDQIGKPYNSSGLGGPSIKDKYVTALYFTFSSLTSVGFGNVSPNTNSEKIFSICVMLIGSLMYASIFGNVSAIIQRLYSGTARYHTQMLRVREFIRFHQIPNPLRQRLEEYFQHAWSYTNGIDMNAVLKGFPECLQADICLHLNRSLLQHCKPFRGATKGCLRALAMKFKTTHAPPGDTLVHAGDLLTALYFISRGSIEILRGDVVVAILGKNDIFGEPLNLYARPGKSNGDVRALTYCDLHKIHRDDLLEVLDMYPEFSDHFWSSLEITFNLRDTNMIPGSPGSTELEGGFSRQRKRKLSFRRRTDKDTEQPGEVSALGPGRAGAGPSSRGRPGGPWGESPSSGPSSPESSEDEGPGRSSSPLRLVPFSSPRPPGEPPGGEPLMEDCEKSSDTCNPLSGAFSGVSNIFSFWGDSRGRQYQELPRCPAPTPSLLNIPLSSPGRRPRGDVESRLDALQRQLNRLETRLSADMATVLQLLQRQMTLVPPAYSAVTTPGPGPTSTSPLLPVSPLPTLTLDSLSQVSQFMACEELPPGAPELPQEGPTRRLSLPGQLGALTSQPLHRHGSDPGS

Compound	hERG current change (%, negative = inhibition) at 10uM [%]
Cc1c(N2C(=O)CSC2=S)c(=O)n(-c2ccccc2)n1C	13.6
CC(C)CNC(=O)C1Nc2ccccc2C2C=CCC12 (centres unmarked)	-6.43
CC1CCCN(S(=O)(=O)c2ccc(NC(=O)Cn3nnc(-c4ccccc4F)n3)cc2)C1 (centres unmarked)	1.45
CN(C)C(=O)c1ccc(NC(=O)c2cc(-n3cnnc3)ccc2Cl)cc1	7.38
CCC(C)NC(=O)CCC(=O)OC1O[C@H]2OC3(C)CC[C@H]4[C@H](C)CCC(C1C)C24OO3 (some centres unmarked)	-16.3
Clc1ccccc1Sc1ccc(-c2ccccn2)s1	0.592
O=C(Nc1ccc(Cl)cn1)Nc1ccc(Cl)cn1	12.5
CCN(Cc1ccccc1)C(=O)c1ccc(N(C)S(=O)(=O)c2ccc(C)cc2)cc1	-38.7
O=C(N/N=C\c1ccc(-c2cccc(Cl)c2)o1)C(=O)NC1CCCC1	5.84
COc1cc(C(=O)N/N=C/c2cn(Cc3cccc(F)c3)c3ccccc23)ccc1O	12.5
COc1ccc2cnn(-c3ccc(OC(F)(F)F)cc3)c(=O)c2c1OC	-6
CCOCCCN1CC(=O)N2[C@@H](Cc3c([nH]c4ccccc34)C2(C)C)C1=O	-12
O=C(CCS(=O)(=O)c1ccccc1)Nc1nc(-c2ccccn2)cs1	-1.47
Cc1ccc(C(=O)N(CC(=O)NC2CCCC2)c2ccc(F)cc2)s1	-0.0124
CCSc1nnc2c3cc(CC)ccc3n(C)c2n1	24.2
CC(C)[C@H](NC(=O)OCc1ccccc1)C(=O)OCC(=O)Nc1ccc(N2CCOCC2)cc1	-15.1
Cc1ccc(-n2[nH]c(C)c(C=Nc3ccc4[nH]c(=O)[nH]c4c3)c2=O)cc1	15.2
COc1ccc(F)cc1C(=O)C1CCCN(C(=O)Cc2c(C)noc2C)C1 (centres unmarked)	-5.04
O=C(O)COc1ccccc1/C=N/NC(=O)c1cc(-c2ccc(F)cc2)nc2ccccc12	-0.318
CC(C)[C@H](NC(=O)OCc1ccccc1)C(=O)OCC(=O)N1CCN(c2ccccc2)CC1	-58.3
Cc1ccc(/C=C/C(=O)OCC(=O)NCCN2C(=O)CSC2=O)cc1	-17.9
Cc1ccccc1-c1noc(N)c1C#N	0.198
CCN(CCNc1ccc([N+](=O)[O-])c2cccnc12)S(=O)(=O)c1ccccc1	11.3
